Results from PubChem BioAssay AID504332 (National Center for Advancing Translational Sciences (NCATS), 2011).
The whole screen tested about 350,000 compounds, of which about 31,000 (8.9%) were called active. Inconclusive results, whose numbers are uncertain, are shown with a selection of clear calls. Calls come from the whole dose curve; as a rule, active = well fitted inhibition curve with a large enough effect; inconclusive = small, poorly fitted or top-dose-only effect; inactive = no such curve, though single readings can be large or run the other way. A potency beside an inconclusive call is a rough fit, not a confirmed value.

What follows are molecules tested against Histone-lysine N-methyltransferase EHMT2 (Homo sapiens) (UniProt Q96KQ7) (assay: qHTS Assay for Inhibitors of Histone Lysine Methyltransferase G9a). Conditions: G9a H3K9 monomethylation, AlphaScreen, 2 h; activity, negative = inhibition: at 59 µM (top of the series) unless noted.
UniProt Q96KQ7, sequence (Q96KQ7 whole entry, looked up): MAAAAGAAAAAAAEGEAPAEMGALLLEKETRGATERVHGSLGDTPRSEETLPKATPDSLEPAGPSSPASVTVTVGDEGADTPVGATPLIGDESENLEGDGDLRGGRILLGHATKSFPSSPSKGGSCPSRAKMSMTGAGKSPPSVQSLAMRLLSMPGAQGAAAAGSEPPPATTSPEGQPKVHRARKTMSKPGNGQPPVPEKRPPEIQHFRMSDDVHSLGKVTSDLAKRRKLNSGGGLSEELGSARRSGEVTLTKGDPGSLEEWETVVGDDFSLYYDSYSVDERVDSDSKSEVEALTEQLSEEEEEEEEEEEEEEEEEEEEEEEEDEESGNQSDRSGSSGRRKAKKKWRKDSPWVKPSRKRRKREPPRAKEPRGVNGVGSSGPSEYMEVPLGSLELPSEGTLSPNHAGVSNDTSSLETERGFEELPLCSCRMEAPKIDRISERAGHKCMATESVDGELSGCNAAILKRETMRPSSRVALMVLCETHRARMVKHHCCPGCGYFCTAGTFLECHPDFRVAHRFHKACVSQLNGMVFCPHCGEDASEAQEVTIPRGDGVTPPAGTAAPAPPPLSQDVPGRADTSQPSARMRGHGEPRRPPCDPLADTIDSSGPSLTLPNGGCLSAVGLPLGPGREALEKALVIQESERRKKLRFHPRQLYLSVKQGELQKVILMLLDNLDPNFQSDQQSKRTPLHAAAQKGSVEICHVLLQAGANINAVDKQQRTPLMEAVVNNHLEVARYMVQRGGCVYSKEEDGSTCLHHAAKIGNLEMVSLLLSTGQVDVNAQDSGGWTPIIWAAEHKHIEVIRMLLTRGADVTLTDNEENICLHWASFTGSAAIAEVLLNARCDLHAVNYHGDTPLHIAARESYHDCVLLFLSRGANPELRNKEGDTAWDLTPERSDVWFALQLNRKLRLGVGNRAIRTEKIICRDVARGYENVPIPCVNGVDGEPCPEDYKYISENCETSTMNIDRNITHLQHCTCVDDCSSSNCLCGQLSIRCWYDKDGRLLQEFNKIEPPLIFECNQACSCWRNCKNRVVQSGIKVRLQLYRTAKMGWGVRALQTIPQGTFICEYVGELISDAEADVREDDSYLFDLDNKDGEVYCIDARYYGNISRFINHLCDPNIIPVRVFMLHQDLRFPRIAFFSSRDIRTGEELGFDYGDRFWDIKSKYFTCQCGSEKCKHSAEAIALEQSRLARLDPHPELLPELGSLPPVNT
How it was run: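 Enzyme 20 nM + cpd, 15 min RT; add b-H3K9 pep 500 nM / SAM 20 uM; 2 h RT; anti-H3K9me1 Ab 0.5 ug/mL + SA donor / anti-rabbit acceptor beads 20 ug/mL each, 10 min; AlphaScreen read.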
% is set by controls: 0 for no effect and ±100 for the full control effect; potency is the fitted concentration of half-maximal effect; tags give direction and shape of the fitted curve.
Note: nearly all actives have a fitted effect of over 75% in size.

Row | SMILES | Potency | activity, negative = inhibition
1 | CC(=O)Nc1cccc(NC(=O)CSc2nnc(NC(=O)c3ccco3)s2)c1 | inconclusive: 89.1 µM [inhibitor, single point] | 
2 | CN(C)c1ccc(/C=N/N(CCO)C2=NS(=O)(=O)c3ccccc32)cc1 | inactive | 
3 | CCN(CC)S(=O)(=O)c1ccc(NC(=O)CSc2cccc[n+]2[O-])cc1 |  | inconclusive: -71.6% [inhibitor]
4 | Cc1cccc(-c2nc3cc(NC(=O)COc4ccccc4F)ccc3o2)c1 | inactive | 
5 | Cc1cc(/C=C(\C#N)C(=O)Nc2ccc(F)cc2)c(C)n1-c1ccc(N2CCOCC2)c([N+](=O)[O-])c1 |  | inconclusive: -59.1% [inhibitor]
6 | COc1ccc(N2CCN(C(=O)Nc3ccccc3Cl)CC2)cc1 | inconclusive: 31.6 µM [inhibitor, single point] | 
7 | CCC(C)N(C(=O)CN1C(=O)NC2(CCc3ccccc32)C1=O)C1CCS(=O)(=O)C1 (stereo not drawn) | inconclusive: 6.31 µM [inhibitor, single point] | 
8 | [O-][n+]1c2ccccc2c2n1CCN1CCOC21c1ccc(Cl)cc1 (stereo not drawn) |  | inactive: 2.66% [at 0.501 µM]
9 | CCCC(=O)n1nc(-c2cccnc2)nc1NCc1ccccc1 | inactive | 
10 | CC[n+]1c(C=C2C=C(C)OC(C)=C2)sc2ccccc21 | inactive | 
11 | c1ccc(CN2CCC3(CC2)Nc2ccccc2CO3)cc1 |  | inactive: 0.412% [at 12.7 µM]
12 | Cc1onc(-c2c(F)cccc2Cl)c1C(=O)O/N=C(\N)c1ccc([N+](=O)[O-])o1 | active: 39.8 µM | 
13 | CCN(CC)S(=O)(=O)c1ccc(Oc2cccc(C(C)=O)c2)nc1 | inconclusive: 8.91 µM [inhibitor, single point] | 
14 | CC(C)(C)C1C/C(=C/c2ccco2)C(=O)/C(=C/c2ccco2)C1 (stereo not drawn) | active: 39.8 µM | 
15 | O=C(CSc1nc2ccccc2c(=O)[nH]1)Nc1ccc(C(=O)O)cc1 | inconclusive: 89.1 µM [inhibitor, partial curve, poor fit] | 
16 | Nc1nnc(SCCOc2ccccc2)s1 | inactive | 
17 | Nc1ncc(CCN2CCOCC2)c(-c2ccc(F)cc2)n1 | inactive | 
18 | O=S(=O)(Nc1nccs1)c1ccc(Br)cc1 | inactive | 
19 | O=C(Cn1nc(Cc2cccnc2)c2ccccc2c1=O)NCC1COc2ccccc2O1 (stereo not drawn) | inconclusive: 89.1 µM [inhibitor, single point] | 
20 | COCCNC(=O)NC(=O)CSc1nc(C)c(C)c(C)n1 | active: 44.7 µM | 
21 | COc1ccc(NS(=O)(=O)c2c(C)nc3scc(C)n3c2=O)cc1 | inactive | 
22 | COc1ccc(Nc2nc(NN)nc(C)c2[N+](=O)[O-])cc1 | inconclusive: 35.5 µM [inhibitor, partial curve, poor fit] | 
23 | O=C(c1cccc(S(=O)(=O)N2CCc3ccccc3C2)c1)N1CCN(c2ccc(O)cc2)CC1 | active: 2.51 µM | 
24 | COc1ccc(C(=O)NC(=S)Nc2cccc(NC(=O)c3ccco3)c2)cc1[N+](=O)[O-] | inactive | 

Row | SMILES | Potency | activity, negative = inhibition
25 | Cc1cccc(OCC(=O)N(Cc2ccc(N(C)C)cc2)Cc2ccco2)c1C | active: 14.1 µM | 
26 | Cc1cc(C)c2c(=O)n(CC(=O)Nc3cccc(Cl)c3C)sc2n1 | active: 0.282 µM | 
27 | O=C(CSc1ncn(-c2ccccc2)n1)c1cccs1 |  | inconclusive: -88.2% [inhibitor]
28 | CCN1C(=O)[C@@H]2Cc3c([nH]c4ccccc34)C(c3ccc(OC)cc3)N2C1=S (stereo partly drawn) | active: 35.5 µM | 
29 | CCOc1ccc(-c2cc(C(=O)N/N=C(\C)c3cccnc3)c3ccccc3n2)cc1 | active: 35.5 µM | 
30 | O=C(Cc1ncn[nH]1)NCCc1ccccc1 | inconclusive: 89.1 µM [inhibitor, single point] | 
31 | O=C(CNC(=O)c1cncc(Br)c1)Nc1ccc(F)c(F)c1F | inactive | 
32 | Cc1ccc(C(=O)NCC(=O)OCC(=O)Nc2cc(S(=O)(=O)N3CCOCC3)ccc2C)cc1 | inconclusive: 70.8 µM [inhibitor, partial curve, poor fit] | 
33 | CCNS(=O)(=O)c1ccc(CCC(=O)N2CCN(c3ccc(OC)cc3)CC2)cc1 | inconclusive: 79.4 µM [inhibitor, single point] | 
34 | O=C(CSc1n[nH]c(-c2ccccc2)n1)Nc1ccc(N2CCOCC2)cc1 | inconclusive: 50.1 µM [inhibitor, partial curve, poor fit] | 
35 | Cn1c(CNC(=O)OC(C)(C)C)nnc1SCC(=O)N1CCOCC1 | inconclusive: 56.2 µM [inhibitor, partial curve] | 
36 | Cc1ccc(S(=O)(=O)N/N=C\c2ccc(Cl)c([N+](=O)[O-])c2)cc1 | active: 7.94 µM | 
37 | COc1ccc(NC2CC(=O)N(C)C2=O)cc1 (stereo not drawn) | inconclusive: 1.58 µM [inhibitor, partial curve, poor fit] | 
38 | CN(C)CCCNC(=O)c1ccccn1 | inactive | 
39 | O=C(c1cc(-c2cccc(O)c2)on1)N1CCCCCC1 | inconclusive: 22.4 µM [inhibitor, full curve] | 
40 | Cc1cccc(N(CC(=O)N(C)Cc2ccccc2)S(=O)(=O)c2ccccc2)c1C | inactive | 
41 | CCC(=O)N1CCc2cc(Br)cc(S(=O)(=O)N3CCCC(C(=O)Nc4ccc(OC)cc4OC)C3)c21 (stereo not drawn) | inactive | 
42 | CC(=O)c1ccc(S(=O)(=O)Nc2ccc(-n3cnnn3)cc2)cc1 | inconclusive: 8.91 µM [inhibitor, single point] | 
43 | CCN(CC)S(=O)(=O)c1ccc(NC(=O)C(C)N(c2ccccc2)S(C)(=O)=O)cc1 (stereo not drawn) | inconclusive: 20 µM [inhibitor, single point] | 
44 | COc1ccc(NC(=O)C(=O)NCc2ccco2)c(OC)c1 | inactive | 
45 | COc1ccc(N2CCN(c3oc(/C=C/c4ccccc4OC)nc3C#N)CC2)cc1 | inconclusive: 2.51 µM [inhibitor, full curve, poor fit] | 
46 | O=C(Nc1nc(-c2ccco2)c(-c2ccco2)s1)C1CC(=O)N(c2ccc3c(c2)OCCO3)C1 (stereo not drawn) | inconclusive: 3.16 µM [inhibitor, single point] | 
47 | Cc1cc(-c2ccco2)n(CC(=O)NCc2ccccc2)n1 | inconclusive: 89.1 µM [inhibitor, single point] | 
48 | Cc1ccc(NCc2nnc(SCC(=O)Nc3ncc(C)s3)n2CC2CCCO2)c(C)c1 (stereo not drawn) | inactive | 
